In all, about 420,000 compounds went through this assay and about 50,000 (12%) were called active. Inconclusive means that the source gave no clear call. Such entries were picked first, then a sample of the others. Calls come from the whole dose curve; as a rule, active = well fitted inhibition curve with a large enough effect; inconclusive = small, poorly fitted or top-dose-only effect; inactive = flat fitted curve, though single readings scatter. Potencies of inconclusive entries are left out as doubtful fits. Some compounds were tested as several samples or in several runs, with calls that do not always agree.
Experiment: qHTS for Inhibitors of human tyrosyl-DNA phosphodiesterase 1 (TDP1): qHTS in cells in presence of CPT; note: nearly all actives have a fitted effect of over 55% in size
Settings: chicken DT40 Tdp1-/-;hTDP1 cells + 20 nM CPT, ATP luminescence, 48 h; activity change, negative = growth inhibition: at 46.2 µM (top of the series) unless noted
Method in brief: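 Cell growth measured by CellTiter-Glo luminescence after a minimum 48 h, 37 C compound exposure with 20 nM CPT in Tdp1-knockout DT40 cells stably expressing hTDP1, seeded 400/well; qHTS titration format.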
% is set by controls: 0 for no effect and ±100 for the full control effect; potency is the fitted concentration of half-maximal effect; tags give direction and shape of the fitted curve.

Row | SMILES | Potency | activity change, negative = growth inhibition
1 | Cc1ccccc1[C@H](NC1c2ccccc2C=Cc2ccccc21)P(=O)(c1ccccc1)c1ccccc1 | inconclusive [inhibitor, single point] | 
2 | O=C(N/N=C/c1ccc([N+](=O)[O-])o1)c1cn(-c2ccccc2)nc1-c1ccccc1 | inconclusive [inhibitor, partial curve] | 
3 | CCc1nc2ccc(C(=O)Nc3ccc(NC(C)=O)cc3)cn2c1N(C)CCCc1ccccc1 | inconclusive [inhibitor, single point] | 
4 | CN1CCN(c2ccccc2NC(=O)c2ccc(-c3ccccc3[N+](=O)[O-])o2)CC1 | active: 14.6 µM | 
5 | CSC1=NCCN1C(=O)c1ccc2c(c1)OCO2 | inconclusive [inhibitor, single point] | 
6 | COc1ccc(N(Cc2cccs2)C(=O)c2ccc(OCC(C)C)cc2)cc1 | inconclusive [inhibitor, single point] | 
7 | Cc1n[nH]c(C)c1CCCCOc1ccccc1[N+](=O)[O-] | active: 20.6 µM | 
8 | Cc1cc(C)cc(Nc2nc(-c3ccc(S(=O)(=O)N4CCCC4)cc3)cs2)c1 | active: 8.2 µM | 
9 | COC1OC(O)C(NC(=O)C(F)(F)F)CC1O (configuration not stated) |  | inactive: -9.64%
10 | CCOC(=O)c1ccc(NC(=O)Nc2nc3ccccc3s2)cc1 | inconclusive [inhibitor, single point] | 
11 | Cc1ccc(OCC(=O)Nc2ccc(Cl)c(-c3nc4ncccc4o3)c2)c(C)c1 | inconclusive [inhibitor, single point] | 
12 | C=C(C)[C@@H]1CC=C(C(=O)O)CC1 |  | inactive: 2.63%
13 | CN(c1ccc(C(=O)Nc2cccnc2)cc1)S(=O)(=O)c1ccc(Cl)cc1 | inconclusive [inhibitor, single point] | 
14 | Cc1cnc(C(=O)OCC(=O)N2CC(C)CC(C)C2)cn1 (configuration not stated) |  | inactive: 7.7%
15 | Cc1cccc(NC(=O)C2CCC(CNS(=O)(=O)c3ccc(Br)s3)CC2)c1 (configuration not stated) | active: 25.9 µM | 
16 | O=C(c1ccncc1)N1CCC2(CC1)CN(c1ccccc1)C2 | active: 16.4 µM | 
17 | CC1=C(C(=O)OCc2ccccc2)C(c2ccccc2[N+](=O)[O-])NC(=O)N1C (configuration not stated) | inconclusive [inhibitor, partial curve] | 
18 | COc1ccc(N(C(=O)c2ccccc2)S(=O)(=O)c2cccs2)cc1 | inconclusive [inhibitor, single point] | 
19 | Cc1ccc(C)c(C(=O)c2c(N)c(-c3nc(-c4ccc5c(c4)OCO5)cs3)c3ccccn23)c1 |  | inconclusive: -34.9% [inhibitor]
20 | O=C(CSc1ncccc1-c1nc2ccccc2[nH]1)N1CCN(c2ccccc2F)CC1 | active: 16.4 µM | 
21 | Cc1ccc(OCC(=O)N2CCN(C(=O)c3cccs3)CC2)cc1 |  | inactive: -9.54%
22 | Cc1cccc(N(CC(=O)NC(C)(C)C)C(=O)CCC(=O)Nc2ccccn2)c1 |  | inactive: 6.13%
23 | OCC[C@H]1C[C@H](O)[C@@H](O)[C@]2(Cc3ccccc3CO2)O1 |  | inactive: -17%
24 | CC(=O)OC1c2c(ccc3ccc(=O)oc23)OC(C)(C)C1OC(=O)CC(C)C (configuration not stated) | active: 23.1 µM | 

Row | SMILES | Potency | activity change, negative = growth inhibition
25 | Cn1ccc2c(OCC(=O)NCc3ccccc3)cccc2c1=O | inconclusive [inhibitor, single point] | 
26 | O=[N+]([O-])c1cc(-c2ccc(/C=N/c3nc4ccccn4c3-c3ccco3)o2)ccc1Cl | inconclusive [inhibitor, single point] | 
27 | CCn1c(C)cc(C(=O)COC(=O)c2ccccc2[N+](=O)[O-])c1C |  | inconclusive: -32.9% [inhibitor]
28 | NC(=NC(=O)c1ccc(OCC(F)(F)F)nc1)c1ccc(Cl)cc1 |  | inactive: -1.99%
29 | COc1ccnc(Oc2ccccc2)c1C(=O)N/C=N/OCc1ccc(F)cc1Cl | inconclusive [inhibitor, single point] | 
30 | Cc1ccc(C)c(/C=N/NC(=S)NCCc2ccccc2)c1 | inconclusive [inhibitor, single point] | 
31 | Cc1ccc(Cn2ncc3c(N4CCN(Cc5ccc(Cl)cc5)CC4)ncnc32)cc1 | active: 18.4 µM | 
32 | COc1ccc(CNS(=O)(=O)NCc2ccc(C)cc2)cc1OC | inconclusive [inhibitor, single point] | 
33 | O=C(Nc1ccc(Cc2ccncc2)cc1)c1cccs1 | inconclusive [inhibitor, single point] | 
34 | COc1ccccc1CNS(=O)(=O)c1ccc(-c2cnc(C3CC3)o2)cc1 | active: 0.92 µM | 
35 | Cc1cc2cc(CNC(=S)Nc3ccc(OC(F)F)cc3)ccc2n1C | inconclusive [inhibitor, single point] | 
36 | COc1ccccc1NC(=S)N1CCN(Cc2ccccc2)CC1 | inconclusive [inhibitor, single point] | 
37 | COc1ccc(Cc2nc(-c3ccc(NC(=O)c4cccnc4)cc3)no2)cc1 | active: 5.8 µM | 
38 | Cc1cccc(C)c1C(O)c1ncc(-c2cccc3ccccc23)[nH]1 (configuration not stated) | active: 20.6 µM | 
39 | Cc1ccc(Cl)cc1NC(=O)c1cc(NC(=O)C2CCCCC2C(=O)O)ccc1N1CCOCC1 (configuration not stated) |  | inconclusive: -18.2% [inhibitor]
40 | CCOC(=O)CN(C)Cc1cn(C)nc1-c1ccc(Oc2ccccc2)cc1 | inconclusive [inhibitor, single point] | 
41 | CCN(CC)C(=O)N1c2ccccc2CC(N(CC)CC)c2ccccc21 (configuration not stated) | active: 7.31 µM | 
42 | O=C(c1cc(-c2cccs2)nc2ccccc12)N1CCN(c2ccccc2)CC1 | inconclusive [inhibitor, single point] | 
43 | CCOC(=O)C1=CCN(S(=O)(=O)c2ccc(C)cc2)C1c1ccc(Cl)cc1 (configuration not stated) | inconclusive [inhibitor, single point] | 
44 | CCCOc1ccc(-c2nonc2NC(=O)c2cc(OC)c(OC)c(OC)c2)cc1OCCC | inconclusive [inhibitor, partial curve, poor fit] | 
45 | CCc1ccc(C2=NN(CCC(=O)NCCc3ccc(OC)c(OC)c3)C(=O)CC2)cc1 | inconclusive [inhibitor, single point] | 
46 | COc1ccc(CNc2cc(C)nc3ccc(OC)cc23)cc1 | inconclusive [inhibitor, single point] | 
47 | CC(C)c1nn2c(=O)cc(COC(=O)c3cccc(NC(=O)c4cccs4)c3)nc2s1 |  | inactive: -3.26%
48 | CCN1C(=O)[C@H]2[C@@H](c3ccc(C)cc3)N[C@]3(CCCN(Cc4ccccc4)C3=O)[C@H]2C1=O |  | inactive: -16.3%

Row | SMILES | Potency | activity change, negative = growth inhibition
49 | O=C(c1cc2ccccc2oc1=O)N(Cc1cccs1)Cc1cccs1 | inconclusive [inhibitor, single point] | 
50 | COc1ccc(CNC(=O)c2ccc3c(c2)N(Cc2ccc(C)cc2)CCS3)cc1 | inconclusive [inhibitor, single point] | 
51 | COc1ccc(/C(C)=N/NC(=S)NCCc2ccccc2)c(O)c1 | active: 0.651 µM | 
52 | Cc1csc(-c2cc(C(=O)NCc3ccc(F)cc3)n[nH]2)c1 | inconclusive [inhibitor, single point] | 
53 | O=[N+]([O-])c1ccc(OCCCOc2cccc3cccnc23)cc1 | inconclusive [inhibitor, single point] | 
54 | COC(=O)c1cc(C(=O)OCC(=O)N(C)C2CCS(=O)(=O)C2)cc([N+](=O)[O-])c1 (configuration not stated) |  | inactive: -3.59%
55 | COc1ccc(NC(=O)Nc2ccc3c(c2)N(C)C(=O)CS3)cc1OC | inconclusive [inhibitor, single point] | 
56 | CC1Sc2ccc(S(=O)(=O)CCC(=O)Nc3ccccn3)cc2NC1=O (configuration not stated) |  | inactive: -4.95%
57 | Nc1c(C(=O)Nc2ccc(S(=O)(=O)N3CCCC3)cc2)sc2nc3ccc(OC(F)(F)F)cc3cc12 | active: 9.2 µM | 
58 | CCOc1ccc(NC(=S)NNC(=O)c2cc(Br)ccc2Cl)cc1 |  | inactive: 5.39%
59 | CCOC(=O)c1cnc2nc(NCc3cccc(Br)c3)[nH]n2c1=O |  | inactive: -5.3%
60 | Cc1cccc(NC(=O)COC(=O)c2cccc3c2C(=O)c2ccccc2C3=O)c1C | inconclusive [inhibitor, single point] | 
61 | CCc1ccccc1NC(=O)CNC(=O)CCC(=O)c1cc(C)sc1C | inconclusive [inhibitor, single point] | 
62 | O=C(Nc1ccc(-c2csc(Nc3ccccc3)n2)cc1)c1ccccc1 | active: 25.9 µM | 
63 | CC1Sc2ccc(C(=O)N(CCc3ccccc3)Cc3ccccc3)cc2NC1=O (configuration not stated) | active: 20.6 µM | 
64 | O=C(CNS(=O)(=O)c1ccc(Br)s1)N1CCN(C(=O)c2ccco2)CC1 |  | inactive: -4.9%
65 | COc1ccc(-c2noc(C3CCCN(C(=O)c4ccc(C)cc4)C3)n2)cc1 (configuration not stated) | active: 23.1 µM | 
66 | CCS(=O)(=O)c1ccc2oc(Nc3ccccc3C)nc2c1 | inconclusive [inhibitor, single point] | 
67 | COc1cccc(-c2nnc(SCC(=O)Nc3cc(C)on3)o2)c1 | active: 16.4 µM | 
68 | COc1ccc(CCNC(=O)CCS(=O)(=O)c2cc(Br)cc3c2N(C(C)=O)CC3)cc1OC |  | inactive: -0.848%
69 | CCOC(=O)C(c1ccccc1)C(Nc1ccc(F)cc1)c1ccccn1 (configuration not stated) | inconclusive [inhibitor, single point] | 
70 | Cc1cc(C)cc(NC(=O)C2CCCN2S(=O)(=O)c2ccc3c(c2)CCCC(=O)N3)c1 (configuration not stated) | inconclusive [inhibitor, single point] | 
71 | O=C1c2ccccc2[C@@H]2C[C@@H](O)[C@H](Nc3cccc4ccccc34)CCN12 | inconclusive [inhibitor, single point] | 
72 | COc1ccccc1Cn1c(/C=C/c2ccccc2)nc2ccccc21 | inconclusive [inhibitor, single point] | 

From PubChem BioAssay AID686979 (National Center for Advancing Translational Sciences (NCATS), 2013)
